According to the supplement of paper PMC4967469:
The IC50 comes from the fitted curve, where viability falls to half of the control; a limit (>, <) means that the fit lies beyond the doses tested. AUC is the area under the same curve over the 256-fold range up to the top dose, as a fraction; it is 1 without any effect and falls as sensitivity rises. The top dose, if marked as inferred, was derived from the fitted curves, not read from the paper.

What follows are cell lines tested with N.N.[Cl][Pt][Cl] [Cisplatin] (assay: Viability of human cancer cell lines after 72 h of drug (GDSC screen)). Details: top dose inferred.
Description: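 Human cancer cell lines in 384-well plates, medium with 10% serum, drug for 72 h over a 256-fold dose range (nine 2-fold or five 4-fold steps up to the top dose). Adherent lines were fixed and stained with the nucleic acid dye Syto60, suspension lines read with resazurin; signal relative to control wells, capped at 0 and 100%. One two-parameter sigmoid per drug and line, fitted in a mixed model over all curves with the slope shared within a line.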

Row | Cell Line | AUC | IC50 [µM]
1 | NCI-H2444 (non-small cell lung carcinoma, adherent, top dose 10 µM) | 0.986 | > 10
2 | NCI-H2452 (mesothelioma, adherent, top dose 10 µM) | 0.968 | > 10
3 | NCI-H3122 (lung adenocarcinoma, adherent, top dose 10 µM) | 0.943 | > 10
4 | NCI-N87 (stomach, adherent, top dose 10 µM) | 0.869 | > 10
5 | NCI-SNU-1 (stomach, suspension, top dose 10 µM) | 0.967 | > 10
6 | NCI-SNU-5 (stomach, suspension, top dose 10 µM) | 0.881 | > 10
7 | NCI-SNU-16 (stomach, suspension, top dose 10 µM) | 0.977 | > 10
8 | NEC8 (testis, adherent, top dose 10 µM) | 0.756 | 2.96
9 | NH-12 (neuroblastoma, adherent, top dose 10 µM) | 0.864 | > 10
10 | NKM-1 (acute myeloid leukaemia, suspension, top dose 10 µM) | 0.755 | 3.49
11 | NMC-G1 (glioma, adherent, top dose 10 µM) | 0.843 | 9.57
12 | NOMO-1 (acute myeloid leukaemia, suspension, top dose 10 µM) | 0.862 | > 10
13 | NOS-1 (osteosarcoma, adherent, top dose 10 µM) | 0.959 | > 10
14 | NTERA-2 cl.D1 (testis, adherent, top dose 10 µM) | 0.565 | 0.941
15 | NU-DUL-1 (B-cell lymphoma, suspension, top dose 10 µM) | 0.747 | 2.67
16 | NUGC-4 (stomach, adherent, top dose 10 µM) | 0.959 | > 10
17 | NY (osteosarcoma, adherent, top dose 10 µM) | 0.848 | 7.3
18 | OACM5-1 (oesophagus, semi-adherent, top dose 10 µM) | 0.923 | > 10
19 | OACp4C (oesophagus, adherent, top dose 10 µM) | 0.846 | 9.58
20 | OAW-42 (ovary, adherent, top dose 10 µM) | 0.859 | 9.47
21 | OC-314 (ovary, adherent, top dose 10 µM) | 0.873 | 7.3

Row | Cell Line | AUC | IC50 [µM]
22 | OCI-AML2 (acute myeloid leukaemia, suspension, top dose 10 µM) | 0.746 | 2.52
23 | OCI-AML3 (acute myeloid leukaemia, suspension, top dose 10 µM) | 0.924 | > 10
24 | OCI-AML5 (acute myeloid leukaemia, suspension, top dose 10 µM) | 0.845 | 6.33
25 | OCI-LY7 (B-cell lymphoma, suspension, top dose 10 µM) | 0.984 | > 10
26 | OCI-LY-19 (B-cell lymphoma, suspension, top dose 10 µM) | 0.768 | 3.46
27 | OCI-M1 (acute myeloid leukaemia, suspension, top dose 10 µM) | 0.936 | > 10
28 | OCUB-M (breast, adherent, top dose 10 µM) | 0.987 | > 10
29 | OCUM-1 (stomach, adherent, top dose 10 µM) | 0.933 | > 10
30 | OE19 (oesophagus, adherent, top dose 10 µM) | 0.936 | > 10
31 | OE21 (oesophagus, adherent, top dose 10 µM) | 0.918 | > 10
32 | OE33 (oesophagus, adherent, top dose 10 µM) | 0.905 | > 10
33 | OMC-1 (cervix, adherent, top dose 10 µM) | 0.886 | > 10
34 | ONS-76 (medulloblastoma, adherent, top dose 10 µM) | 0.729 | 2.96
35 | OPM-2 (myeloma, suspension, top dose 10 µM) | 0.992 | > 10
36 | OS-RC-2 (kidney, adherent, top dose 10 µM) | 0.726 | 3.73
37 | OSC-20 (head and neck, adherent, top dose 10 µM) | 0.963 | > 10
38 | OV-7 (ovary, adherent, top dose 10 µM) | 0.891 | > 10
39 | OV-17R (ovary, adherent, top dose 10 µM) | 0.941 | > 10
40 | OV-56 (ovary, adherent, top dose 10 µM) | 0.702 | 2.26
41 | OV-90 (ovary, adherent, top dose 10 µM) | 0.936 | > 10
42 | OVCA420 (ovary, adherent, top dose 10 µM) | 0.964 | > 10

Row | Cell Line | AUC | IC50 [µM]
43 | OVCA433 (ovary, adherent, top dose 10 µM) | 0.934 | > 10
44 | OVCAR-4 (ovary, adherent, top dose 10 µM) | 0.874 | > 10
45 | OVCAR-5 (ovary, adherent, top dose 10 µM) | 0.744 | 3.66
46 | OVCAR-8 (ovary, adherent, top dose 10 µM) | 0.905 | > 10
47 | OVISE (ovary, adherent, top dose 10 µM) | 0.855 | > 10
48 | OVK-18 (ovary, adherent, top dose 10 µM) | 0.827 | 7
49 | OVKATE (ovary, adherent, top dose 10 µM) | 0.957 | > 10
50 | OVMIU (ovary, adherent, top dose 10 µM) | 0.956 | > 10
51 | OVTOKO (ovary, adherent, top dose 10 µM) | 0.759 | 4.4
52 | P12-ICHIKAWA (T-cell lymphoblastic leukaemia, suspension, top dose 10 µM) | 0.914 | 8.74
53 | P30-OHK (lymphoblastic leukaemia, suspension, top dose 10 µM) | 0.781 | 3.43
54 | P31-FUJ (acute myeloid leukaemia, suspension, top dose 10 µM) | 0.988 | > 10
55 | P32-ISH (Burkitt lymphoma, suspension, top dose 10 µM) | 0.851 | 4.91
56 | PA-1 (ovary, adherent, top dose 10 µM) | 0.696 | 1.92
57 | PA-TU-8902 (pancreas, adherent, top dose 10 µM) | 0.928 | > 10
58 | PA-TU-8988T (pancreas, adherent, top dose 10 µM) | 0.984 | > 10
59 | PANC-02-03 (pancreas, adherent, top dose 10 µM) | 0.937 | > 10
60 | PANC-03-27 (pancreas, adherent, top dose 10 µM) | 0.918 | > 10
61 | PANC-04-03 (pancreas, adherent, top dose 10 µM) | 0.961 | > 10
62 | PANC-08-13 (pancreas, adherent, top dose 10 µM) | 0.864 | > 10
63 | PC-3 [JPC-3] (lung adenocarcinoma, adherent, top dose 10 µM) | 0.97 | > 10

Row | Cell Line | AUC | IC50 [µM]
64 | PC-14 (lung adenocarcinoma, adherent, top dose 10 µM) | 0.842 | 5.94
65 | PCI-4B (head and neck, adherent, top dose 10 µM) | 0.768 | 3.55
66 | PCI-6A (head and neck, adherent, top dose 10 µM) | 0.676 | 1.91
67 | PCI-15A (head and neck, adherent, top dose 10 µM) | 0.987 | > 10
68 | PCI-30 (head and neck, adherent, top dose 10 µM) | 0.863 | > 10
69 | PE/CA-PJ15 (head and neck, adherent, top dose 10 µM) | 0.941 | > 10
70 | PEO1 (ovary, adherent, top dose 10 µM) | 0.865 | 9.41
71 | PF-382 (T-cell lymphoblastic leukaemia, suspension, top dose 10 µM) | 0.967 | > 10
72 | PFSK-1 (medulloblastoma, adherent, top dose 10 µM) | 0.813 | 5.8
73 | PL4 (pancreas, adherent, top dose 10 µM) | 0.973 | > 10
74 | PL-21 (acute myeloid leukaemia, suspension, top dose 10 µM) | 0.983 | > 10
75 | PSN1 (pancreas, adherent, top dose 10 µM) | 0.676 | 1.77
76 | PWR-1E (prostate, adherent, top dose 10 µM) | 0.834 | 6.46
77 | QGP-1 (pancreas, adherent, top dose 10 µM) | 0.978 | > 10
78 | QIMR-WIL (acute myeloid leukaemia, suspension, top dose 10 µM) | 0.859 | 7.92
79 | RC-K8 (B-cell lymphoma, suspension, top dose 10 µM) | 0.976 | > 10
80 | RCC10RGB (kidney, adherent, top dose 10 µM) | 0.972 | > 10
81 | RCC-AB (kidney, adherent, top dose 10 µM) | 0.951 | > 10
82 | RCC-ER (kidney, adherent, top dose 10 µM) | 0.854 | 9.38
83 | RCC-FG2 (kidney, adherent, top dose 10 µM) | 0.749 | 4.03
